Laboratory results: PubChem BioAssay AID588855 (National Center for Advancing Translational Sciences (NCATS), 2011)
Among all 410,000 compounds or so, about 5,000 (1.2%) were called active. The inconclusive results got no clear call from the source; some entries with a clear call stand among them for comparison. Calls come from the whole dose curve; as a rule, active = well fitted inhibition curve with a large enough effect; inconclusive = small, poorly fitted or top-dose-only effect; inactive = no such curve, though single readings can be large or run the other way. A potency beside an inconclusive call is a rough fit, not a confirmed value.

test: qHTS for Inhibitors of TGF-b; conditions: HepG2 CAGA-GFP TGF-b/SMAD3 reporter, GFP fluorescence, 18 h, TGF-beta stimulated, 500 pg/mL final; series mostly up to 46.1 µM; activity, negative = inhibition: at the top concentration; note: nearly all actives have a fitted effect of over 65% in size
Outline: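 Read-out: total well GFP (ex488/em500-530) summed from mean per-cell fluorescence. Cells: HEPG2 CAGA-GFP, 1% FBS DMEM, 18 h at 37 degrees C with 500 pg/mL final TGF-beta. Unstimulated wells served as the full-inhibition control; stimulated DMSO wells = 0%.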
% is set by controls: 0 for no effect and ±100 for the full control effect; potency is the fitted concentration of half-maximal effect; tags give direction and shape of the fitted curve.

SMILES | activity, negative = inhibition | Potency
COc1cccc(C(=O)CN(C(=O)c2ccc(Cl)cc2Cl)N2C(=O)c3ccccc3C2=O)c1 | inactive: -8.87% | –
COc1cc(/C=C/C(=O)N2CCC=CC2=O)cc(OC)c1OC | – | inconclusive: 14.1 µM [inhibitor, single point]
Cc1c(C(=O)N2CC(C)OC(C)C2)oc2ccccc12 (configuration not stated) | inactive: 0.0688% | –
CCOC(=O)N1CCN(S(=O)(=O)c2ccc(OCC)c3ccccc23)CC1 | – | inconclusive: 25.1 µM [inhibitor, single point]
C#CCOCCOCCOCCNc1nc(N2CCOCC2)nc(N2CCN(C(=O)CCCCCCCCCCNC(=O)[C@H](CO)n3cc(CCCSC)nn3)CC2)n1 | – | inconclusive: 25.1 µM [inhibitor, single point]
CCOC(=O)C1=C(C)Nc2ccccc2N=C1NC(=O)CCCN1C(=O)c2ccccc2C1=O | – | inconclusive: 12.6 µM [inhibitor, single point]
Cc1cc(C)c(-c2noc(C(=O)OC(C)(C)C)c2C(=O)OC(C)(C)C)c(C)c1 | – | inconclusive: 25.1 µM [inhibitor, single point]
CN1CCN(c2ccccc2/C=N/NC(=O)c2cccnc2)CC1 | inactive: -2.84% | –
CCCNC(=O)c1cc(S(=O)(=O)N2CCCCC2)ccc1N1CCOCC1 | – | inconclusive: 6.31 µM [inhibitor, single point]
COc1ccc(C(=O)C[n+]2ccc(-c3nnc4n3CCCCC4)cc2)cc1 | inactive: 24.2% | –
CC[C@H](C)[C@@H](CN[C@H](C)CNC)NCCC(c1ccccc1)c1ccccc1 | – | inconclusive: 35.5 µM [inhibitor, single point]
Nc1c(Cl)ncnc1N/N=C/c1cccnc1 | – | inconclusive: 3.98 µM [inhibitor, full curve, poor fit]
CN(CC(=O)Nc1ccc(F)cc1)C(=O)c1ccc(OCc2cn3ccccc3n2)cc1 | inactive: -9.43% | –
O=C(Nc1ccccc1Cl)OC1CCCCC1 | inactive: 0% | –
CN(C)c1ccc(CNC(=O)C2CCN(S(=O)(=O)c3ccc4c(ccn4C)c3)CC2)cc1 | – | inconclusive: 11.2 µM [inhibitor, partial curve, poor fit]
C[C@@H]1CN([C@@H](C)CO)C(=O)c2cc(NC(=O)CCN3CCOCC3)ccc2O[C@@H]1CN(C)C(=O)Nc1ccccc1 | – | inconclusive: 11.2 µM [inhibitor, partial curve, poor fit]
O=C(O)c1c[nH]c2c([N+](=O)[O-])cccc2c1=O | inactive: -3.01% | –
COc1cc(NS(=O)(=O)c2ccc(NC(=O)/C(=C/c3ccccc3Cl)NC(=O)c3ccccc3)cc2)nc(OC)n1 | – | inconclusive: 35.5 µM [inhibitor, single point]
CN1OC[C@@H]2CN[C@H](c3cccc(-c4cc(Cl)cc(Cl)c4)c3)C[C@@H]21 | – | inconclusive: 20 µM [inhibitor, single point]
Fc1ccc(NC(=S)NNc2ncc(C(F)(F)F)cc2Cl)c(F)c1 | – | inconclusive: 3.16 µM [inhibitor, partial curve, poor fit]
COc1ccccc1NCC(O)COc1ccc(C(C)(C)C)cc1 (configuration not stated) | – | inconclusive: 17.8 µM [inhibitor, single point]
CCOc1ccccc1NC(=O)CSc1nc2cc(OC)c(OC)cc2c2nc(-c3ccccc3)nn12 | inactive: -14.5% | –
Cc1ccc(SCc2ccc(C(=O)Nc3cccc([N+](=O)[O-])c3C)cc2)cc1 | – | inconclusive: 0.631 µM [inhibitor, full curve]

SMILES | activity, negative = inhibition | Potency
COc1ccc(OCCN2CCC(C(=O)NC(c3ccccc3)c3ccc4ccccc4n3)CC2)cc1 (configuration not stated) | – | inconclusive: 17.8 µM [inhibitor, single point]
N#CC(C#N)=C1C=CC=CN1/C(=C\c1ccccc1Cl)C(=O)c1ccccc1 | – | active: 3.16 µM
OCC1(Cc2cccc(Cl)c2)CCCN(Cc2cnn(-c3ccccc3)c2)C1 (configuration not stated) | – | inconclusive: 20 µM [inhibitor, single point]
C[C@]1(C(=O)NCc2cc(F)cc(C(F)(F)F)c2)C=C[C@@H](Cc2ccccc2)N1C(=O)c1ccccc1 | – | inconclusive: 35.5 µM [inhibitor, single point]
CC12CN3CC(C)(CN(C1)C3c1ccccc1F)C2 (configuration not stated) | inactive: 16.8% | –
COC(=O)c1sc(NC(=O)c2ccco2)c(C#N)c1C | inactive: 4.21% | –
COc1ccc(/C=N/NC(=O)c2ccncc2)cc1CN1CCN(c2ccc(F)cc2)CC1 | – | inconclusive: 15.8 µM [inhibitor, single point]
N#C/C(C(N)=O)=c1/ccc2c(c1)N1C3=C(CCCC3)CC3CCCCC31N=2 (configuration not stated) | – | inconclusive: 20 µM [inhibitor, single point]
CCOC(=O)C1=C(Cn2cnc3ccccc32)NC(=O)NC1c1cc(C)ccc1C (configuration not stated) | – | inconclusive: 2.82 µM [inhibitor, partial curve]
c1cc2cn[nH]c2cc1NC1CCCCCC1 | – | inconclusive: 35.5 µM [inhibitor, single point]
Cc1c(Cl)cccc1Nc1nc(NCCO)c2ccccc2n1 | – | active: 11.2 µM
O=C(Nc1nnc(-c2ccccc2)o1)c1ccc(Cl)cc1 | – | inconclusive: 12.6 µM [inhibitor, single point]
CC(C)c1ccc(NC(=O)Nc2nc(C(N)C3CCCCC3)cs2)cc1 (configuration not stated) | – | active: 22.4 µM
CCc1cccc(NC(=O)CC2SC(N3CCCC3)=NC2=O)c1 (configuration not stated) | inactive: 0.749% | –
Cn1c(=O)c2c(ncn2CCCC(=N)N2CCOCC2)n(C)c1=O | inactive: 2.35% | –
Cc1ccc(NC(=O)Cn2c(=O)n(Cc3ccco3)c(=O)c3sc4ccccc4c32)cc1C | inactive: -6.62% | –
c1ccc2cc(C3OCC4(CCCC4)CO3)ccc2c1 | inactive: -1.3% | –
CCN1/C(=C/c2cccc[n+]2C)Sc2ccc(OC)cc21 | – | active: 3.98 µM
Cc1cc(=O)[nH]c(Nc2cccc(Br)c2)n1 | – | inconclusive: 35.5 µM [inhibitor, single point]
CN(C)CCNC(=O)c1cccc2nc3c(ccc4ccccc43)nc12 | – | inconclusive: 15.8 µM [inhibitor, partial curve, poor fit]
COc1ccc(OC)c(C2=NOC(C(=O)NCC3CCCO3)C2)c1 (configuration not stated) | inactive: 3.78% | –
O=C(CSc1nc2nc(-c3cccs3)cc(C(F)(F)F)c2c(=O)[nH]1)NCc1ccco1 | – | inconclusive: 15.8 µM [inhibitor, single point]
Cc1ccc(NS(=O)(=O)c2ccc(OCC(=O)NCC3CCCO3)cc2)cc1 (configuration not stated) | – | inconclusive: 22.4 µM [inhibitor, single point]

SMILES | activity, negative = inhibition | Potency
CCn1c(COc2ccc(OC)cc2)nnc1SCC(=O)Nc1cc(OC)ccc1OC | – | inconclusive: 25.1 µM [inhibitor, single point]
COc1cccc(/C=C/c2nc(C#N)c(NCCc3ccc(OC)c(OC)c3)o2)c1 | – | inconclusive: 35.5 µM [inhibitor, single point]
CCCC1OC(c2cc3c(cc2Cl)OCO3)OCC1CC (configuration not stated) | – | inconclusive: 25.1 µM [inhibitor, single point]
CCCCN1C(=O)C(O)(c2c[nH]c3ccccc23)c2cc(Br)ccc21 (configuration not stated) | – | inconclusive: 3.98 µM [inhibitor, partial curve, poor fit]
CCN/C=C(\C#N)S(=O)(=O)c1ccc(Br)cc1 | inactive: 24.4% | –
COc1ccc(NC2CCCN(C(=O)CCC(=O)c3ccc(F)cc3)C2)cc1 (configuration not stated) | – | inconclusive: 14.1 µM [inhibitor, single point]
CCOc1ccc(CCNC(c2cccc(Cl)c2)c2nnc(-c3ccccc3)o2)cc1OCC (configuration not stated) | – | inconclusive: 0.562 µM [inhibitor, full curve, poor fit]
O=C(NCCn1cc(SCc2ccc(Cl)cc2)c2ccccc21)c1cccs1 | – | inconclusive: 11.2 µM [inhibitor, partial curve, poor fit]
CCOc1ccc2c(c1)OC(c1ccc(OC)cc1)(C(F)(F)F)NC2=O (configuration not stated) | – | inconclusive: 35.5 µM [inhibitor, single point]
CCc1c(C)nc2ncnn2c1Nc1ccc(C)cc1 | inactive: -8.64% | –
COc1cccc(-c2nc(SCC(=O)Nc3ccc4c(c3)OCCO4)c(-c3ccccc3)[nH]2)c1 | – | inconclusive: 17.8 µM [inhibitor, partial curve, poor fit]
Cc1cccc(C)c1OCCNC(=O)OCc1ccccc1 | – | inconclusive: 22.4 µM [inhibitor, single point]
c1ccc(CNc2nc(NCc3cccs3)nc3ccsc23)cc1 | – | inconclusive: 25.1 µM [inhibitor, single point]
Oc1ccc(Cl)cc1C1=NNC(c2ccc(Cl)cc2)C1 (configuration not stated) | – | inconclusive: 35.5 µM [inhibitor, single point]
Clc1cccc(Cc2c(-c3cccc(Br)c3)nc3ccc(Br)cn23)c1 | – | inconclusive: 35.5 µM [inhibitor, single point]
O=C(Nc1ccc2c(c1)OCO2)c1cc2ncc(Br)cn2n1 | inactive: 23.3% | –
CC(NC(=S)Nc1ccc(OC(F)F)cc1)c1ccc(F)cc1 (configuration not stated) | – | inconclusive: 17.8 µM [inhibitor, single point]
CCO[C@H]1OC(C(=O)N2CCCCCCC2)=C[C@@H](c2ccc(C(F)(F)F)cc2)[C@@H]1CCCO | – | inconclusive: 7.08 µM [inhibitor, partial curve, poor fit]
O=C(NC(NC(=S)Nc1c(Cl)cc(Cl)cc1Cl)C(Cl)(Cl)Cl)OCc1ccccc1 (configuration not stated) | – | inconclusive: 2.82 µM [inhibitor, full curve, poor fit]
CC1=C(C(=O)N(C(C)C)C(C)C)CC(CC(=O)NCCc2ccccn2)C(=O)N1CCCN1CCCC1=O (configuration not stated) | inactive: -9.61% | –
CNC(=O)C(=O)NCCCN1CCOCC1 | – | inconclusive: 5.62 µM [inhibitor, single point]
